{"source": "PubChem BioAssay AID1461", "about": "(National Center for Advancing Translational Sciences (NCATS), 2008)", "note": "The campaign covered roughly 220,000 compounds. About 2,300 (1%) were called active. Inconclusive results, whose numbers are uncertain, are shown with a selection of clear calls. Calls come from the whole dose curve; as a rule, active = well fitted inhibition curve with a large enough effect; inconclusive = small, poorly fitted or top-dose-only effect, or effect the other way; inactive = no such curve, though single readings can be large or run the other way. Potencies of inconclusive entries are left out as doubtful fits. % is set by controls: 0 for no effect and ±100 for the full control effect; potency is the fitted concentration of half-maximal effect; tags give direction and shape of the fitted curve."}
{"molecular_target": "Neuropeptide S receptor (Homo sapiens) (UniProt Q6W5P4)", "sequence (Q6W5P4 whole entry, looked up)": "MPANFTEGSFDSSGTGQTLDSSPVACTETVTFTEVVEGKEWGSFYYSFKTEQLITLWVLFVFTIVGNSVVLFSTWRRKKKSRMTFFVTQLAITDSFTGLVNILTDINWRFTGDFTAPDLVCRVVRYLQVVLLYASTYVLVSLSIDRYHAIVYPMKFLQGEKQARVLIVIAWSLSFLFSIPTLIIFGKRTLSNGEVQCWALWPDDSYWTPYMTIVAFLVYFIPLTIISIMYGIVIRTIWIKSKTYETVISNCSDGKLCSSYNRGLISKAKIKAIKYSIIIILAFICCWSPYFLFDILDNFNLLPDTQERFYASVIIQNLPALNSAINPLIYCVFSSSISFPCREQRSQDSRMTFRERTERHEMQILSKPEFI", "test": "qHTS Assay for Antagonists of the Neuropeptide S Receptor: cAMP Signal Transduction; note: nearly all actives have a fitted effect of over 50% in size", "settings": "CHO-NPSR cells, cAMP TR-FRET, antagonist mode; activity change, negative = inhibition: at 38.3 µM (top of the series) unless noted"}
{"compound": "COc1ccc(Cn2c(N)c(C(=O)NCc3ccco3)c3nc4ccccc4nc32)cc1OC", "Potency": "inconclusive [inhibitor, single point]"}
{"compound": "COc1ccc(C(Nc2ccccc2)P(=O)(Oc2ccccc2)Oc2ccccc2)cc1", "note": "(stereo not drawn)", "Potency": "inconclusive [inhibitor, single point]"}
{"compound": "O=C1CN=C(c2ccccc2)c2ccccc2N1Cc1ccc(C(F)(F)F)cc1", "Potency": "inconclusive [inhibitor, single point]"}
{"compound": "CCCCCCCn1c(=O)c(C(=O)Nc2cnccn2)c(O)c2ccccc21", "Potency": "inconclusive [inhibitor, single point]"}
{"compound": "CC1CCCN(C(=O)c2ccc(N3CC4CC(C3)c3cccc(=O)n3C4)c([N+](=O)[O-])c2)C1", "note": "(stereo not drawn)", "activity change, negative = inhibition": "inactive: 12.1%"}
{"compound": "CCOC(=O)C1(c2ccccc2)CCN(Cc2cccc(C(=O)O)c2)CC1", "Potency": "inconclusive [inhibitor, partial curve, poor fit]"}
{"compound": "N#CCCn1cc(C(=O)Nc2ccc([N+](=O)[O-])cc2)c(-c2ccc3c(c2)OCCO3)n1", "Potency": "inconclusive [inhibitor, single point]"}
{"compound": "Cc1ccc(CN2C3CCCC2CC(NC(=S)NCc2ccccc2)C3)cc1", "note": "(stereo not drawn)", "Potency": "inconclusive [activator, single point]"}
{"compound": "CC1(C)CC(=O)c2cc(OCC(=O)N3CCN(Cc4ccccc4)CC3)ccc2O1", "activity change, negative = inhibition": "inactive: 0.769%"}
{"compound": "Cc1cc(N2CCCC2)ccc1C=C(C#N)C#N", "activity change, negative = inhibition": "inactive: -7.31%"}
{"compound": "C=C(C)[C@H]1Cc2c(ccc3c2O[C@@H]2COc4cc(OC)c(OC)cc4[C@@H]2C3=O)O1", "Potency": "inconclusive [activator, partial curve]"}
{"compound": "COc1ccc(C(=O)Nc2cc(Cl)ccc2C(=O)O)cc1", "Potency": "inconclusive [activator, partial curve]"}
{"compound": "Fc1ccc(C(OCCN2CCN(CCCc3ccccc3)CC2)c2ccc(F)cc2)cc1", "Potency": "inconclusive [inhibitor, partial curve]"}
{"compound": "COC(=O)C[C@]1(C(=O)OC)CN(C#N)N(c2ccc(Cl)cc2)C12c1ccccc1-c1ccccc12", "activity change, negative = inhibition": "inactive: -13.9% [at 46.1 µM]"}
{"compound": "O=C(c1cccn2c(=O)c3ccc(Cl)cc3nc12)N1CCC2(CC1)OCCO2", "Potency": "inconclusive [inhibitor, single point]"}
{"compound": "C=C(C=O)CC1CC(O)[C@]2(C)OC3CC4OC5C[C@]6(C)O[C@]7(C)CCC8OC9C[C@]%10(C)OC%11C(C)=CC(=O)OC%11CC%10OC9C[C@@H](C)C8OC7CC6O[C@]5(C)CC5OC5C4OC3CC2O1", "note": "(stereo partly drawn)", "Potency": "inconclusive [activator, full curve]"}
{"compound": "CC(C)CCOP(=O)(c1ccc(N(C)C)cc1)C(O)c1ccccn1", "note": "(stereo not drawn)", "Potency": "inconclusive [inhibitor, single point]"}
{"compound": "COc1ccc(-c2cc(C(F)(F)F)n3nc(C(=O)N4CCC5(CC4)OCCO5)cc3n2)cc1OC", "activity change, negative = inhibition": "inactive: -20.2% [at 46.1 µM]"}
